# Reference: PubChem BioAssay AID493208 (National Center for Advancing Translational Sciences (NCATS), 2011)
# About 340 (0.77%) of roughly 44,000 compounds were called active. Another 5% or so got no clear call; they are omitted. The call rests on the fitted dose curve; in most records, active means well fitted inhibition curve with a large enough effect; inconclusive means small, poorly fitted or top-dose-only effect; inactive means flat fitted curve, though single readings scatter. The list shows a part of the results.
# Assay: Acumen qHTS Assay for Inhibitors of the mTORC1 Signaling Pathway in MEF (Tsc2-/-, p53-/-) Cells: Sytravon;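 further: plate controls were DMSO for no effect and rapamycin for full effect; nearly all actives have a fitted effect of over 50% in size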
# Settings: phospho-rpS6 immunofluorescence/PI, 24 h; series mostly up to 38.3 µM; activity change, negative = inhibition: at the top concentration
# Summary of the method: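 Readout is phospho-S6 Alexa 488 signal normalized to PI per well, reported as % active cells with thresholds set from rapamycin (7.5 nM) and DMSO controls. Cells: Tsc2-/-, p53-/- MEFs, 24 hrs compound at 37 C; PI cell number serves as viability.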
row,SMILES,"activity change, negative = inhibition"
1,Cc1ccc(-c2cn(-c3cccc(Cl)c3)c(S(=O)(=O)CC(=O)Nc3ccccc3F)n2)cc1,inactive: -12.9%
2,COc1cc(C2c3c(oc4cc(C)c(C)cc4c3=O)C(=O)N2CCCN2CCOCC2)ccc1O (centres undefined),inactive: 5.19%
3,CCOC(=O)c1cc(S(=O)(=O)Nc2ccc(Br)c(C)c2)[nH]n1,inactive: -6.33%
4,Cc1ccc2c(c1)c1c(c(=O)n(-c3cccc(Cl)c3)c(=O)n1CC(=O)N1CCCC1)n2C,inactive: -2.22%
5,Cc1c(C(=O)N2CCC(c3nc4ccccc4s3)CC2)oc2cc(Br)ccc12,inactive: -14.3%
6,CCCNC(=O)c1cc2nc(-c3ccc(Br)cc3)cc(C(F)(F)F)n2n1,inactive: -9.3%
7,CCOc1ccc(-n2c(SCc3nc(-c4ccc(OC)cc4)no3)nnc2-c2ccncc2)cc1,inactive: 5.07%
8,COc1ccc(Br)cc1CNC(=O)c1cc(=O)[nH]c2ccc(S(=O)(=O)N3CCCC3)cc12,inactive: 5.76%
9,CCOc1cccc2cc(-c3nc4sc5c(c4c(=O)[nH]3)CCC(C(C)(C)C)C5)c(=O)oc12 (centres undefined),inactive: -22.2%
10,COc1ccc(Br)cc1CNC(=O)c1cc2ccccn2n1,inactive: -4.66%
11,CCOc1ccccc1NC(=O)Cn1c(=O)n(CCC(C)C)c(=O)c2cccnc21,inactive: -8.39%
12,O=C(COC(=O)c1cc(-c2cccs2)nc2ccccc12)c1ccc(Br)cc1,inactive: 0.892%
13,Cc1nc2ccccc2n1CCc1nc2c3ccccc3nc(SCc3cccc(F)c3)n2n1,inactive: 0.512%
14,CC1=C(C(=O)Nc2ccccc2)C(c2ccccc2C)n2ncc(C(=O)Nc3ccccc3)c2N1 (centres undefined),inactive: -1.2%
15,Cc1cc(C)cc(OCCn2c(C3CC(=O)N(c4ccccc4Cl)C3)nc3ccccc32)c1 (centres undefined),inactive: 1.18%
16,Cc1ccc2c(=O)c(C(=O)c3ccccc3)cn(CC(=O)Nc3ccc4c(c3)OCCO4)c2n1,inactive: 6.28%
17,CC(C)(C)c1ccc(C2Sc3ccccc3NC3=C2C(=O)c2ccccc23)cc1 (centres undefined),inactive: 3.99%
18,Cn1c(=O)c2sccc2n2c(CCC(=O)NCc3ccc(F)cc3)nnc12,inactive: -9.87%
19,COc1ccc(CCNC(=O)CCn2c(=O)c3ccccc3n(CC(=O)Nc3ccccc3F)c2=O)cc1OC,inactive: 13.8%
20,CCCCN(CC)CCNC(=O)Cn1cnc2sc(C)c(S(=O)(=O)N3CCC(C)CC3)c2c1=O,inactive: -1.93%

row,SMILES,"activity change, negative = inhibition"
1,O=C1c2oc3ccccc3c(=O)c2C(c2ccc(Br)cc2)N1c1ccccn1 (centres undefined),inactive: -2.52%
2,COC(=O)c1cnn(-c2ccc(C(=O)Nc3cccc(C(C)=O)c3)cc2)c1N,inactive: 3.04%
3,CCOc1ccc(NC(=O)CC2C(=O)N(c3ccccc3)C(=O)N2CCc2ccc(OC)cc2)cc1 (centres undefined),inactive: 1.18%
4,Cn1c(=O)oc2cc(S(=O)(=O)N3CCC(C(=O)NCc4ccccc4Cl)CC3)ccc21,inactive: 0.266%
5,Cc1ccc(NC(=O)Cn2nc(C)c3nn(-c4ccc(Cl)cc4)c(C)c3c2=O)cc1C,inactive: -1.45%
6,O=C1CN(C(=O)Cc2ccc(F)cc2)C(c2ccccc2)c2cc(Br)ccc2N1 (centres undefined),inactive: -13.9%
7,CC(=O)c1ccc(N2CCN(S(=O)(=O)c3c(C)nc4sc(C)cn4c3=O)CC2)cc1,inactive: 3.79%
8,CCCn1c(SCc2nc(-c3ccccc3C)no2)nnc1-c1ccc(Cl)cc1,inactive: 1.96%
9,Cc1cccc(OCc2cc(=O)n3c(-c4ccccc4)csc3n2)c1C,inactive: 0.75%
10,COc1ccc(N2C(=O)CSC23C(=O)N(CC(=O)NC2CCCCC2)c2ccccc23)cc1 (centres undefined),inactive: -2.75%
11,Cc1cccc(N2CCN(C(=O)C3CCC(CNS(=O)(=O)c4ccc(Br)s4)CC3)CC2)c1C (centres undefined),inactive: -20%
12,CCc1nn(CC(=O)N2CCN(c3cccc(C)c3C)CC2)c(=O)c2cc3occc3n12,inactive: -3.72%
13,CCc1nn(CC(=O)NC(C)CCc2ccccc2)c(=O)c2cc3cc(F)ccc3n12 (centres undefined),inactive: 0.442%
14,NC(=O)CSc1oc(-c2ccco2)nc1S(=O)(=O)c1ccc(Br)cc1,inactive: -1.11%
15,CCCCn1cc(S(=O)(=O)c2ccc(C)c(C)c2)c(=O)c2cc(F)c(N3CCN(C)CC3)cc21,inactive: -1.33%
16,Cn1c(CN2CCCCC2)nc2cc(NC(=O)c3cccc(Br)c3)ccc21,inactive: -6.97%
17,CCn1cc(C(=O)NCCCOC(C)C)c(=O)c2cc(S(=O)(=O)N3CCc4ccccc4C3)ccc21,inactive: -2.87%
18,O=C(CN1C(=O)CCSc2ccc(S(=O)(=O)N3CCCC3)cc21)Nc1ccccc1,inactive: 0.967%
19,CCC(C(=O)Nc1ccccc1C(=O)OC)n1c(C)c2cnn(-c3ccccc3)c(=O)c2c1C (centres undefined),inactive: 0.0716%
20,CCC(Oc1ccccc1)C(=O)Nc1ccc(O)c(-c2nc3cc(C)ccc3o2)c1 (centres undefined),inactive: -9.27%

row,SMILES,"activity change, negative = inhibition"
1,Cn1c(NCCCCO)nc2c1c(=O)n(Cc1ccc(Cl)cc1)c(=O)n2C,inactive: -6.02%
2,COc1cccc(NC(=O)CCS(=O)(=O)c2ccc3c(c2)oc(=O)n3C)c1,inactive: -1.83%
3,O=C(Cn1cc(S(=O)(=O)Cc2ccccc2Cl)c2ccccc21)NCc1ccccc1Cl,inactive: -2.45%
4,Cc1c2cnn(CC(=O)N3CCN(c4ccccc4)CC3)c(=O)c2c(C)n1Cc1ccc(F)cc1,inactive: -2.67%
5,CCOc1ccccc1NC(=O)CCS(=O)(=O)c1cccc2nsnc12,inactive: -3.57%
6,Cc1ccc(C)c(Cn2c(C(C)NC(=O)c3ccc(F)cc3)nc3ccccc32)c1 (centres undefined),inactive: -12.6%
7,CCN(c1ccccc1)S(=O)(=O)c1cc(-c2onc(C)c2C)ccc1OC,inactive: 0%
8,COc1cccc(N2C(=O)C(CC(=O)Nc3ccc(Cl)cc3)N(Cc3ccc4c(c3)OCO4)C2=O)c1 (centres undefined),inactive: -7.49%
9,CCc1cccc(NC(=O)c2nnn(Cc3ccc(SC)cc3)c2N)c1,inactive: -8.84%
10,COc1ccc(N2CCN(C(=O)c3c(C)oc4ncnc(N5CCCCC5)c34)CC2)cc1,inactive: -12.1%
11,CCOCCCNC(=O)C(c1ccccc1)N(Cc1cccs1)C(=O)c1ccc(NC(C)=O)cc1 (centres undefined),inactive: 1.26%
12,CCn1c(=O)c2sccc2n2c(CCCC(=O)N3CCN(c4ccc(OC)cc4)CC3)nnc12,inactive: 1.69%
13,O=C1CC(c2ccccc2)Cc2[nH]c(=O)c(C(=O)Nc3ccc(OC(F)(F)F)cc3)cc21 (centres undefined),inactive: 1.32%
14,Cc1cccc(N2CCN(C(=O)C3CCCN(S(=O)(=O)c4cccc5nsnc45)C3)CC2)c1C (centres undefined),inactive: -0.0785%
15,Cc1cccc(-c2noc(CCCC(=O)NCc3ccco3)n2)c1,inactive: -11.8%
16,COCCn1c(CCC(=O)Nc2cc(C)ccc2C)nc2cccnc21,inactive: -17.6%
17,O=C(Nc1ccc(Br)cc1)C1CCCN(S(=O)(=O)c2ccc(Br)s2)C1 (centres undefined),inactive: -7.89%
18,CCOc1ccc(S(=O)(=O)N2CCN(c3cc(Cl)ccc3Cl)CC2)c2ccccc12,inactive: 1.84%
19,Cc1ccc(NC(=O)CN2C(=O)C(c3ccc(F)cc3)=NC23CCCCC3)c(C)c1,inactive: -1.41%
